# Among all 48,000 compounds or so, about 120 (0.25%) were called active. Roughly 4% stayed inconclusive and do not appear here. Calls come from the whole dose curve; as a rule, active = well fitted activation curve with a large enough effect; inconclusive = small, poorly fitted or top-dose-only effect, or another doubt; inactive = no such curve, though single readings can be large or run the other way. This is one part of the list.
# Test: Primary qHTS for Identification of Small Molecule Activators of Huntingtin-Antisense Promoter Activity; note: nearly all actives have a fitted effect of over 55% in size
# Conditions: HEK293 HTT-AS promoter firefly luciferase reporter, 24 h; series mostly up to 57.5 µM; activity change, positive = activation: at the top concentration
# Method in brief: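 Firefly luciferase signal from promoter-reporter HEK293 cells was scaled between vehicle (0%) and zero RLU (-100%). Compounds were tested at final concentrations of up to 57.5 uM over 24 h at 37 degrees C. PTC124 at 50 uM final served as control inhibitor.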
row,SMILES,"activity change, positive = activation"
1,CCC1CN(C(=O)Nc2cc(Cl)ccc2C(=O)OC)c2ccccc2S1 (centres undefined),inactive: -11.4%
2,COc1ccc(OC)c(NC(=O)COCc2cc(-c3ccc(F)cc3)on2)c1,inactive: -0.227%
3,Cc1ccc(C)c(Cn2c(=O)n(CCCC(=O)NCc3ccc4c(c3)OCO4)c(=O)c3sccc32)c1,inactive: -35.4%
4,CCCSc1ncc(Cl)c(C(=O)N2CCN(c3ccc(OC)cc3)CC2)n1,inactive: -35.2%
5,CN(C(=O)c1nn(C)c2c1CS(=O)(=O)c1ccccc1-2)c1cccc(Cl)c1,inactive: -8.14%
6,CCOC(=O)c1ccc(NC(=O)c2c(NCc3cccc(OC)c3OC)sc3c2CCC3)cc1,inactive: -3.24%
7,CC(C)Oc1ccc(C(=O)N2CCCCC2CCN2CCCCC2)cc1 (centres undefined),inactive: -9.81%
8,CCOC(=O)c1sc(N2C(=O)c3oc4ccc(F)cc4c(=O)c3C2c2ccc(O)cc2)nc1C (centres undefined),inactive: -10.6%
9,O=C(NCc1ccc(Cl)cc1Cl)c1cccc(N2CCCS2(=O)=O)c1,inactive: -31.7%
10,CCn1cc2nc(SCc3cccc(C(F)(F)F)c3)n(Cc3ccc(C)cc3)c(=O)c2n1,inactive: 2.6%
11,Cc1cc(F)ccc1NC(=O)c1c(C)oc2c1C1=NCCN1C=N2,inactive: -7.27%
12,CCc1ccccc1NC(=O)CSc1nc2c(c(=O)[nH]1)CN(Cc1ccccc1OC)CC2,inactive: 2.53%
13,COc1ccccc1-n1c(=O)n(C)c2c(C(N)=O)nc(-c3cc(OC)c(OC)c(OC)c3)nc21,inactive: -19.3%
14,CCCCCCC1CCC(C(=O)NC(C(=O)O)C(C)C)CC1 (centres undefined),inactive: -27.3%
15,O=C(CSc1oc(-c2ccco2)nc1S(=O)(=O)c1ccc(Cl)cc1)Nc1ccc(F)cc1,inactive: -6.54%
16,CC(C)c1ccc(NC(=O)CSC2=Nc3ccccc3C3=NC(CC(=O)NC4CCCCC4)C(=O)N23)cc1 (centres undefined),inactive: -35.4%
17,COc1ccc(-c2nc3ccccc3n3c(-c4ccccc4)c4c(=O)n(C)c(=O)n(C)c4c23)cc1,"inactive: 5.95% [at 11.5 µM, percent change from vehicle, -100% = no light]"
18,COc1ccc2c(Sc3ccc(Cl)cc3)c(C(=O)N3CCCCC3)[nH]c2c1,inactive: -10.4%
19,Cc1ccc(/C=C/c2onc(C)c2S(=O)(=O)N2CCC(C(=O)N(CCC(C)C)Cc3ccco3)CC2)cc1,inactive: 17.3%
20,COc1ccc(N2CCN(CCCNC(=O)c3ccc4nc(N5CCCCC5)sc4c3)CC2)cc1,inactive: -55.7%
21,CCc1cccc(NC(=O)CCNS(=O)(=O)c2ccc3c(c2)CCN3C(C)=O)c1,inactive: 11.1%
22,Cc1ccc(N2C(=O)CSC23C(=O)N(CC(=O)Nc2ccccc2F)c2ccccc23)cc1C (centres undefined),inactive: -10.9%
23,Cc1ccc(CNC(=O)c2ccc(CS(=O)(=O)c3ccccc3C)o2)cc1,inactive: -14%

row,SMILES,"activity change, positive = activation"
1,CCOC(=O)CSc1nc2cc3c(cc2c(=O)n1CCCCCC(=O)NCc1ccc(OC)cc1)OCO3,inactive: -8.73%
2,CN(C)c1ccc(CNC(=O)c2ccc3nc(CCc4ccccc4)oc3c2)cc1,inactive: 21.4%
3,COc1ccccc1NC(=O)Cn1c(=O)n(-c2ccc(C)cc2)c(=O)c2c1cnn2C,inactive: -5.25%
4,COc1ccc(-n2nc(C(=O)Nc3cccc(Cl)c3)c3c4ccccc4n(C)c3c2=O)cc1Cl,inactive: -4.49%
5,O=C(Nc1ccc(Br)cc1)c1cccc(S(=O)(=O)N2CCc3ccccc32)c1,inactive: -56.8%
6,CC(C)(C)c1ccc(-c2nnc(-c3ccccc3NC(=O)c3ccc(F)cc3F)o2)cc1,inactive: -20.3%
7,CCOC(=O)c1cccc(NC(=O)c2cnn(-c3ccccc3)c2-n2cccc2)c1,inactive: -24.2%
8,CC(=O)N1c2ccccc2C(=O)C1N1CCN(c2cc(Cl)ccc2C)CC1 (centres undefined),inactive: -33.7%
9,O=C(CSCc1cc(=O)c2ccccc2[nH]1)Nc1cccc(C(F)(F)F)c1,inactive: -15.9%
10,CC(=O)c1ccc(N2CCN(S(=O)(=O)c3ccc4[nH]c5c(c4c3)CCCCC5)CC2)cc1,inactive: -35.5%
11,CCC1CN(C(=O)Nc2ccccc2C(F)(F)F)c2ccccc2S1 (centres undefined),inactive: 5.23%
12,CCC1CN(C(=O)N2CCC(C(=O)N(C)Cc3ccccc3)CC2)c2ccccc2O1 (centres undefined),inactive: -27.2%
13,Cc1ccc(CNC(=O)c2cc(S(=O)(=O)N3CCCCC3)cn2C)cc1,inactive: -29%
14,Cc1ccc2nc(CN3CCN(C(=O)Nc4cccc(C)c4C)CC3)oc2c1,inactive: -19%
15,COc1ccc(NC(=O)CN2C(=O)CC(c3ccco3)Sc3ccccc32)cc1OC (centres undefined),inactive: -25.2%
16,COC(=O)c1scc(-c2ccc(C)cc2)c1S(=O)(=O)Nc1c(C)cc(C)cc1C,inactive: -15.2%
17,Cc1nc2c(-c3ccccc3)c(C)[nH]n2c(=O)c1Cc1ccc(C(C)C)cc1,inactive: -42.4%
18,CCS(=O)(=O)c1ncc(N(Cc2cccc(F)c2)Cc2ccco2)c(C(=O)Nc2ccccc2Cl)n1,inactive: -9.35%
19,Cc1onc(-c2ccccc2Cl)c1C(=O)N[C@@H]1C(=O)N2[C@@H]1SC(C)(C)[C@@H]2C(=O)O,inactive
20,COc1ccc2c(c1)c1c(c(=O)n(Cc3ccccc3)c(=O)n1Cc1ccc(C)cc1)n2C,inactive: -15%
21,Cc1ccc(-n2ncc(C(=O)NCCCN3CCc4ccccc4C3)c2C2CCN(C(=O)OC(C)(C)C)CC2)cc1C,inactive: -25.9%
22,CC(CNC(=O)CN1C(=O)COc2ccc(S(=O)(=O)N3CCCCC3)cc21)c1ccccc1 (centres undefined),inactive: -16.8%
23,O=C(Nc1ccc(Cl)cc1)C1CCN(S(=O)(=O)c2ccc(Br)s2)CC1,inactive: -43.8%

row,SMILES,"activity change, positive = activation"
1,Cc1ccccc1C(=O)Nc1ccc(C(=O)OCc2cc(=O)n3nc(C4CC4)sc3n2)cc1,inactive: -47.3%
2,CC1CN(C(=O)Nc2ccc(C(=O)NCCc3ccccc3Cl)cc2)c2ccccc2S1 (centres undefined),inactive: 3.75%
3,COc1ccc(-c2cc(C(F)(F)F)n3nc(C(=O)Nc4sc5c(c4C#N)CCC(C)C5)cc3n2)cc1OC (centres undefined),"inactive: 8.24% [at 11.5 µM, percent change from vehicle, -100% = no light]"
4,CCC(C)NC(=O)c1[nH]c2cc(OC)ccc2c1Sc1ccc(C)cc1 (centres undefined),inactive: 5.97%
5,COc1ccccc1NC(=O)c1sc2nc(-c3cc4ccccc4oc3=O)[nH]c(=O)c2c1C,inactive: -6.61%
6,COc1ccc(Cn2ccc3ccc(C(=O)NO)cc32)cc1,inactive: -16.3%
7,Cc1cc(C)cc(NC(=O)c2cccc(N3CCCS3(=O)=O)c2)c1,inactive: 23.9%
8,O=C(Cc1ccc(Cl)cc1)NCC(c1cccs1)S(=O)(=O)c1ccc(Cl)cc1 (centres undefined),inactive: -34.1%
9,Cc1cccc(C(=O)Nc2nnc(SCc3cc(=O)n4cccc(C)c4n3)s2)c1,inactive: -3.28%
10,COc1ccc(C(=O)N/C(=C\c2cn(S(=O)(=O)N(C)C)c3ccccc23)C(=O)NCCCn2ccnc2)cc1,inactive: -2.17%
11,O=C(CSc1nnc(-c2ccccc2F)o1)N1CCc2ccccc21,inactive: 7.89%
12,Cc1cccc(NC(=O)c2c(NC(=O)c3ccco3)sc3c2CCC(C(C)(C)C)C3)c1 (centres undefined),inactive: -11.8%
13,C#Cc1cccc(Nc2ncnc3cc(OCCOC)c(OCCOC)cc23)c1,inactive
14,CN(Cc1ccccc1)C(=O)C1CCN(Cc2cc3ccccc3n2Cc2ccccc2)CC1,inactive: -23.9%
15,CCOc1ccccc1NC(=O)CCNS(=O)(=O)c1ccc2c(c1)CCN2C(=O)C1CC1,inactive: -22.4%
16,Cc1ccc(/C=C/c2onc(C)c2S(=O)(=O)N2CCC(C(=O)NCc3ccc(N(C)C)cc3)CC2)cc1,inactive: 18.4%
17,CCCCS(=O)CC(O)CSc1nc(-c2ccc(OC)cc2)cc(-c2ccccc2)c1C#N (centres undefined),"inactive: -21.1% [at 11.5 µM, percent change from vehicle, -100% = no light]"
18,COc1ccc(NC(=O)CN(c2ccc(C)cc2)S(=O)(=O)c2cccs2)cc1OC,inactive: -6.88%
19,Fc1ccccc1N1CCN(c2c3c(nc4nncn24)CCC3)CC1,inactive: -33.9%
20,CCC(Sc1nnc(-c2ccc(OC)cc2)c(-c2ccc(OC)cc2)n1)C(=O)Nc1cccc(OC)c1 (centres undefined),inactive: -12.7%
21,Cc1ccc(OCCCC(=O)Nc2sc3c(c2C(N)=O)CCCC3)cc1,inactive: 13%
22,Cn1ncc2c(N3CCN(c4ccccc4Cl)CC3)ncnc21,inactive: -20.8%
23,CCCCN(C)C(=O)Cn1ncc2c([nH]c3ccc(C)cc32)c1=O,inactive: -11.3%

row,SMILES,"activity change, positive = activation"
1,CCC(C(=O)NCc1ccccc1)n1ncn2c(cc3occc32)c1=O (centres undefined),inactive: -7.98%
2,Cc1cccc(C(=O)Nc2cccc(C(=O)OCc3cc(=O)n4ccsc4n3)c2)c1,inactive: 20.3%
3,CCOC(=O)c1ccc2ncc(C(=O)OCC)c(Nc3ccc(C)c(Br)c3)c2c1,inactive: -38.4%
4,COc1ccc(Br)cc1CNC(=O)CN1C(=O)CSc2ccc(S(=O)(=O)N3CCOCC3)cc21,inactive: -16.6%
5,Cc1ccc(NC(=O)c2cc3c(=O)n(Cc4cccnc4)ccc3nc2C)cc1F,inactive: 6.28%
6,COc1ccc(OC(C)C(=O)NCc2nc(-c3ccc(Cl)cc3)no2)cc1 (centres undefined),inactive: -32.9%
7,COc1ccc(NC(=O)CNS(=O)(=O)c2cccs2)c(OC)c1,inactive: 19.7%
8,CC(C)Sc1ncc(Cl)c(C(=O)Nc2ccc(S(=O)(=O)N3CCCCC3C)cc2)n1 (centres undefined),inactive: -37.9%
9,COc1ccc(OC)c(CNC(=O)c2cccc(NC(=O)N3CCSc4ncccc43)c2)c1,inactive: -14.6%
10,NS(=O)(=O)c1cc2c(cc1Cl)NC=NS2(=O)=O,inactive
11,O=c1c2oc3ccccc3c2n(Cc2cccc(C(F)(F)F)c2)c(=O)n1Cc1ccc2c(c1)OCO2,inactive: -19.4%
12,COc1cc(OC)cc(C(=O)Nc2ccc(S(=O)(=O)Nc3onc(C)c3C)cc2)c1,inactive: 1.48%
13,CCOC(=O)c1c(C)[nH]c(CCC(=O)Nc2cc(C)cc(C)c2)c1C,inactive: -22.8%
14,O=C(Cn1nc(C(F)(F)F)c2c1CCCC2)Nc1ccc(Cl)cc1,inactive: -31.4%
15,Cc1ccc(-n2c3c(cc(-c4nc(-c5ccc(Cl)cc5)cs4)c2=O)C(=O)CC(C)(C)C3)cc1,inactive: -3.35%
16,COc1cccc(CNC(=O)CN2C(=O)CCn3nc(-c4cn(C)c5ccccc45)cc32)c1OC,inactive: 2.25%
17,CCc1ccc(N2C(=O)CSC23C(=O)N(Cc2cccc(F)c2)c2ccccc23)cc1 (centres undefined),inactive: -31.8%
18,CCOC(=O)c1cccc(NC(=O)c2cc(-c3ccc(Cl)s3)nc3ccccc23)c1,inactive: -13.6%
19,O=C(NCCc1ccccc1)c1ccc(CSc2nc3ccncc3n2Cc2ccccc2)cc1,inactive: 10.4%
20,Cc1ccc(NC(=O)CSc2nc(C)cc(C)c2C(=O)Nc2cccc(C)c2)cc1,inactive: -28.5%

# Reference: PubChem BioAssay AID1508624 (National Center for Advancing Translational Sciences (NCATS), 2021)
